In patent US9751932B2, “Anti-big-endothelin-1 (big-ET-1) antibodies and uses thereof” (Regeneron Pharmaceuticals, Inc., priority 2012, dated 2017):

What was measured:
[1] = target: T1, human big-ET-1 (cleavage by human ECE-1) (Homo sapiens, UniProt P05305); assay: NFAT luciferase reporter assay (293/ETaR/NFAT-Luc cells) for blocking of ECE-1-mediated cleavage; type: cell-based; conditions: read-out: Blocking IC50 10 nM hBig-ET-1 + 3 nM hECE1 [Trial 2]; Trial 2; hybridoma mAbs
T1 sequence (P05305 53-90 limits assumed): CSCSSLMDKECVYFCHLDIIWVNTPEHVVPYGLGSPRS
Description: (§1) Briefly, HEK293 cell lines were generated to stably express full-length human endothelin receptor type A (ETaR) along with a luciferase reporter element [NFAT (4×)-luciferase]. A single clone was isolated and maintained in 10% FBS, DMEM, NEAA, Pen/Strep, and 500 μg/ml G418 and 100 μg/ml hygromycin B.
(§2) Both human and mouse big-ET-1 blocking experiments were allowed to incubate (37° C.; 5% CO2) overnight. The next morning these solutions were added to the 293/ETaR/NFAT-Luc cells (20,000 cells/well) and luciferase activity was detected after 5.5 hrs (37° C.; 5% CO2) using a Victor X plate reader (Perkin Elmer). The amount of luciferase activity observed under these conditions is a proportional representation of the amount of small-ET-1 generated from cleavage of either mouse or human big-ET-1.

[2] = target: T2, human big-ET-1 (SEQ ID NO:434) (Homo sapiens, UniProt P05305); assay: Surface plasmon resonance (Biacore) binding, mAb capture format, 37° C.; conditions: analyte human big-ET-1, mAb capture
T2 sequence (P05305 53-90 limits assumed): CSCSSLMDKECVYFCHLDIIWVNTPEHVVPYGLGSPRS
Description: (§3) Measurements were conducted on a T200 Biacore instrument (Biacore Life Sciences division of GE Healthcare, Piscataway, N.J.). […] Different concentrations of small-ET-1 (SEQ ID NO:435), human big-ET-1 (SEQ ID NO:434) or mouse big-ET-1 (SEQ ID NO:437) were injected over the anti-big-ET-1 captured surfaces at a flow rate of 100 μl/min. Peptide binding was monitored for 3 min while dissociation of mAb-bound peptide was monitored for 4 min in HBST running buffer (0.01 M HEPES pH 7.4, 0.15 M NaCl, 3 mM EDTA, 0.005% v/v Surfactant P20). Kinetic association (ka) and dissociation (kd) rate constants were determined by processing and fitting the data to a 1:1 binding model using Scrubber 2.0 curve fitting software.

[3] = target: T3, mouse big-ET-1 (SEQ ID NO:437) (Mus musculus, UniProt P22387); assay: as above; conditions: analyte mouse big-ET-1, mAb capture
T3 sequence (P22387 53-91 limits assumed): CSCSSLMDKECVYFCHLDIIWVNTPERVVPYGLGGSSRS
Description: as §3

[4] = target: T4, mouse big-ET-1 (cleavage by mouse ECE-1) (Mus musculus, UniProt P22387); assay: NFAT luciferase reporter assay (293/ETaR/NFAT-Luc cells) for blocking of ECE-1-mediated cleavage; type: cell-based; conditions: read-out: Blocking IC50 20 nM mBig-ET-1 + 5 nM mECE1; human Fc mAbs (Table 5)
T4 sequence (P22387 53-91): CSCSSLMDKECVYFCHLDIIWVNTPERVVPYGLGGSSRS
Description: as §1, §2

B1: H2M6741N: anti-big-ET-1 antibody, mouse IgG2 Fc; HCVR/LCVR SEQ ID NO: 82/90 (antibody, V domains shown)
VH: QVQLVESGGGVVQPGRSLRLSCAASGFTFRSYGMHWVRQAPGKGLEWVAVIWYDGSDKYYADSVKGRFTISRDNSKNTLYLQMNSLRAEDTAVYFCAKDEYKTRGGYFDYWGQGTLVTVSS
VL: [omitted - about 120 residues]
modifications: mouse IgG2 Fc
IC50 [1]: 15 nM
ka [2]: 582000 M/s
kd [2]: 0.137 s⁻¹
Kd ([2]; KD=kd/ka): 236 nM
ka [3]: 385000 M/s
kd [3]: 0.0891 s⁻¹
Kd ([3]; KD=kd/ka): 232 nM

B2: H4H6495N: human IgG4 Fc format carrying identifier 6495N (variable domains HCVR/LCVR SEQ ID NO: 66/74 per nomenclature in b139) (antibody, V domains shown)
VH: QVQLVESGGGVVQPGRSLRLSCAASGFTFRSYGMHWVRQAPGKGLEWVAVIWYDGSDKYYADSVKGRFTISRDNSKNTLYLQMNSLRAEDTAVYFCAKDEYKTRGGYFDYWGQGTLVTVSS
VL: [omitted - about 120 residues]
modifications: human IgG4 Fc
IC50 [4]: > 100 nM
ka [2]: 606000 M/s
kd [2]: 0.0399 s⁻¹
